Assay [1] concerns the target T1, VEGF-A (UniProt P15692-4 27-191, limits assumed).
T1 construct: also called vascular endothelial growth factor A
T1 sequence (looked up): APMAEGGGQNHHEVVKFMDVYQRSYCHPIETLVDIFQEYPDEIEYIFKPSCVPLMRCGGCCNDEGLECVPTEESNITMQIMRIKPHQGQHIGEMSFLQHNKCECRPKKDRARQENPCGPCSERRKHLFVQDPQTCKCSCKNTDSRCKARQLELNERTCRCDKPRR
Put plainly: BLI Octet; fold increase vs VEGF-Grab3 (Panolos Bioscience). For orientation: BLI is a label-free optical method that tracks binding on a fibre tip over time.

The target in assay [2] is T2, PLGF (UniProt P49763-2 19-149, limits assumed).
T2 construct: also called placental growth factor
T2 sequence (looked up): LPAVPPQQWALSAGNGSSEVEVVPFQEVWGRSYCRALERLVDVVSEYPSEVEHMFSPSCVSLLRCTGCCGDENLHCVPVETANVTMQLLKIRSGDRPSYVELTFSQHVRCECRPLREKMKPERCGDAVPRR
The assay is described as above.

Assay [3] has as its target T3, VEGF-A (UniProt P15692-4 27-191, limits assumed).
T3 construct: Analyte at 40, 20, 10 nM; also called vascular endothelial growth factor A
T3 sequence (looked up): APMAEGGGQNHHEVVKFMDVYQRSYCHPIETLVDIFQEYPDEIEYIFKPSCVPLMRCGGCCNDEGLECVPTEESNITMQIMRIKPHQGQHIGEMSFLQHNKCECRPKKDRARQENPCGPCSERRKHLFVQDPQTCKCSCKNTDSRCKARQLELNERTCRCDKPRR
Put plainly: BLI (Octet), fusion captured on AHC sensor; fold increase vs VEGF-Grab3 (Samsung Biologics).

In assay [4] the target is T4, PLGF (UniProt P49763-2 19-149, limits assumed).
T4 construct: also called placental growth factor
T4 sequence (looked up): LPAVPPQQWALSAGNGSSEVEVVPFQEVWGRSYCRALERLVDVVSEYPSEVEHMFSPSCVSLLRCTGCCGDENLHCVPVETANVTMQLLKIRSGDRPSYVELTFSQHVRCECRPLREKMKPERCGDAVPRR
The description is as above.

B1: C32 (Fc fusion)
chain: EFGRPFVEMYSEIPEIIHMTEGRELVIPCRVTSPNITVTLKKFPLDTLIPDGKRIIWDSRKGFIISNATYKEIGLLTCEATVNGHLYKTNYLTHRQTNTIIDVQISTPSPVTLLRGHTLVLNCTATTPLNTRVQMTWSYPDEKNKNASVRRRIDQSNSHANIFYSVLTIDKMQNKDKGLYTCRVRSGPSFKSVNTSVHIYDGSSG[gap - human IgG1 Fc with changes]
notes: Based on VEGF-Grab3; IgG1 Fc
For the molecule B1, in assay [1], the “Fold (kdis)” value turned out to be 1.59 fold and the “Fold (kon)” value was 1.34 fold. Besides, in assay [2], the “Fold (KD)” value was determined as 3.08 fold, the “Fold (kdis)” value was determined as 3.14 fold and the “Fold (kon)” value worked out at 0.98 fold.

B2: C34 (Fc fusion)
chain: EFGRPFVEMYSEIPEIIHMTEGRELVIPCRVTSPNITVTLKKFPLDTLIPDGKRIIWDSRKGFIISNATYKEIGLLTCEATVNGHLYKTNYLTHRQTNTIIDVQISTPSPVTLLRGHTLVLNCTATTPLNTRVQMTWSYPDEKNKNASVRRRIDQSNSHANIFYSVLTIDKMQNKDKGLYTCRVRSGPSFKSVNTSVHIYDGSSGEPKSSDKTYTS[gap - human IgG1 Fc with changes]
notes: Based on VEGF-Grab3; IgG1 Fc
B2: in assay [1], the “Fold (KD)” value is 1.22 fold, the “Fold (kdis)” value turned out to be 0.87 fold and the “Fold (kon)” value amounted to 1.4 fold. For the same molecule, in assay [2], the “Fold (KD)” value stood at 2.28 fold, the “Fold (kdis)” value amounted to 3.76 fold and the “Fold (kon)” value was 0.61 fold.

B3: C41 (Fc fusion)
chain: EFGRPFVEMYSEIPEIIHMTEGRELVIPCRVTSPNITVTLKKFPLDTLIPDGKRIIWDSRKGFIISNATYKEIGLLTCEATVNGHLYKTNYLTHRQTNTIIDVQISTPSPVTLLRGHTLVLNCTATTPLNTRVQMTWSYPDEKNKNASVRRRIDQSNSHANIFYSVLTIDKMQNKDKGLYTCRVRSGPSFKSVNTSVHIYDGSGGGGSGGGGSGGGGSAESKYGPP[gap - human IgG1 Fc]
notes: Based on VEGF-Grab3; IgG1 Fc
On to B3, for which, in assay [1], the “Fold (KD)” value came out at 0.4 fold, the “Fold (kdis)” value is 0.3 fold and the “Fold (kon)” value worked out at 1.36 fold. Also, in assay [2], the “Fold (KD)” value was 3.63 fold, the “Fold (kdis)” value came to 1.73 fold and the “Fold (kon)” value stood at 2.09 fold.

B4: C43 (Fc fusion)
chain: EFGRPFVEMYSEIPEIIHMTEGRELVIPCRVTSPNITVTLKKFPLDTLIPDGKRIIWDSRKGFIISNATYKEIGLLTCEATVNGHLYKTNYLTHRQTNTIIDVQISTPSPVTLLRGHTLVLNCTATTPLNTRVQMTWSYPDEKNKNASVRRRIDQSNSHANIFYSVLTIDKMQNKDKGLYTCRVRSGPSFKSVNTSVHIYDGSNTGSGGEEKKKEKEKEEQEERSS[gap - human IgG1 Fc with H224Y (EU numbers)]
notes: Based on VEGF-Grab3; IgG1 Fc
Regarding B4, in assay [1], the “Fold (KD)” value amounted to 0.43 fold, the “Fold (kdis)” value is 0.3 fold and the “Fold (kon)” value worked out at 1.42 fold. Besides, in assay [2], the “Fold (KD)” value is 1.86 fold, the “Fold (kdis)” value worked out at 2.44 fold and the “Fold (kon)” value came out at 0.76 fold.

B5: C44 (Fc fusion)
chain: EFGRPFVEMYSEIPEIIHMTEGRELVIPCRVTSPNITVTLKKFPLDTLIPDGKRIIWDSRKGFIISNATYKEIGLLTCEATVNGHLYKTNYLTHRQTNTIIDVQISTPSPVTLLRGHTLVLNCTATTPLNTRVQMTWSYPDEKNKNASVRRRIDQSNSHANIFYSVLTIDKMQNKDKGLYTCRVRSGPSFKSVNTSVHIYDGSNTGSGGEEKKKEKEKEEQEERSSDTPP[gap - human IgG1 Fc]
notes: Based on VEGF-Grab3; IgG1 Fc
Consider B5, for which, in assay [1], the “Fold (KD)” value amounted to 0.35 fold, the “Fold (kdis)” value stood at 0.23 fold and the “Fold (kon)” value worked out at 1.5 fold. Besides, in assay [2], the “Fold (KD)” value worked out at 1.73 fold, the “Fold (kdis)” value is 1.16 fold and the “Fold (kon)” value turned out to be 1.49 fold.

B6: C37 (Fc fusion)
chain: EFGRPFVEMYSEIPEIIHMTEGRELVIPCRVTSPNITVTLKKFPLDTLIPDGKRIIWDSRKGFIISNATYKEIGLLTCEATVNGHLYKTNYLTHRQTNTIIDVQISTPSPVTLLRGHTLVLNCTATTPLNTRVQMTWSYPDEKNKNASVRRRIDQSNSHANIFYSVLTIDKMQNKDKGLYTCRVRSGPSFKSVNTSVHIYDGSKVDKKV[gap - human IgG1 Fc with C220S H224Y (EU numbers)]
notes: Linker variant based on VEGF-Grab3; control of the disulfide bond variants
On to B6, for which, in assay [3], the “Fold (KD)” value amounted to 0.22 fold, the “Fold (kdis)” value is 0.16 fold and the “Fold (kon)” value turned out to be 1.36 fold. Besides, in assay [4], the “Fold (KD)” value is 1.35 fold, the “Fold (kdis)” value came out at 1.33 fold and the “Fold (kon)” value amounted to 1.01 fold.

B7: C56 (Fc fusion)
chain: EFGRPFVEMYSEIPEIIHMTEGRELVIPCRVTSPNITVTLKKFPLDTLIPDGKRIIWDSRKGFIISNATYKEIGLLTCEATVNGHLYKTNYLTHRQTNTIIDVQISTPSPVTLLRGHTLVLNCTATTPLNTRVQMTWSYPDEKNKNASVRRRIDQSNSHANIFYSVLTIDKMQNKDKGLYTCRVRSGPSFKSVNTSVHIYDGGGGSGGGGSGGGGSGGGGSA[gap - human IgG1 Fc with C220S H224Y (EU numbers)]
notes: Based on VEGF-Grab3; IgG1 Fc
As to B7, in assay [1], the “Fold (KD)” value stood at 0.26 fold, the “Fold (kdis)” value was 0.22 fold and the “Fold (kon)” value worked out at 1.16 fold. For the same molecule, in assay [2], the “Fold (KD)” value turned out to be 2.16 fold, the “Fold (kdis)” value turned out to be 1.7 fold and the “Fold (kon)” value was determined as 1.44 fold.

B8: C36 (Fc fusion)
chain: EFGRPFVEMYSEIPEIIHMTEGRELVIPCRVTSPNITVTLKKFPLDTLIPDGKRIIWDSRKGFIISNATYKEIGLLTCEATVNGHLYKTNYLTHRQTNTIIDVQISTPSPVTLLRGHTLVLNCTATTPLNTRVQMTWSYPDEKNKNASVRRRIDQSNSHANIFYSVLTIDKMQNKDKGLYTCRVRSGPSFKSVNTSVHIYDGSKVDKKV[gap - human IgG1 Fc with C220S (EU numbers)]
notes: Based on VEGF-Grab3; IgG1 Fc
Take B8: in assay [1], the “Fold (KD)” value stood at 0.73 fold, the “Fold (kdis)” value was 0.61 fold and the “Fold (kon)” value amounted to 1.19 fold. Further, in assay [2], the “Fold (KD)” value stood at 1.54 fold, the “Fold (kdis)” value turned out to be 1.05 fold and the “Fold (kon)” value amounted to 1.47 fold.

B9: C39 (Fc fusion)
chain: EFGRPFVEMYSEIPEIIHMTEGRELVIPCRVTSPNITVTLKKFPLDTLIPDGKRIIWDSRKGFIISNATYKEIGLLTCEATVNGHLYKTNYLTHRQTNTIIDVQISTPSPVTLLRGHTLVLNCTATTPLNTRVQMTWSYPDEKNKNASVRRRIDQSNSHANIFYSVLTIDKMQNKDKGLYTCRVRSGPSFKSVNTSVHIYDGSKVDKKVEPKSSDTPP[gap - human IgG1 Fc]
notes: Based on VEGF-Grab3; IgG1 Fc
B9: in assay [1], the “Fold (KD)” value worked out at 0.77 fold, the “Fold (kdis)” value stood at 0.59 fold and the “Fold (kon)” value stood at 1.3 fold. Besides, in assay [2], the “Fold (KD)” value is 4.64 fold, the “Fold (kdis)” value was determined as 2.17 fold and the “Fold (kon)” value turned out to be 2.14 fold.

B10: C37 (Fc fusion)
chain: EFGRPFVEMYSEIPEIIHMTEGRELVIPCRVTSPNITVTLKKFPLDTLIPDGKRIIWDSRKGFIISNATYKEIGLLTCEATVNGHLYKTNYLTHRQTNTIIDVQISTPSPVTLLRGHTLVLNCTATTPLNTRVQMTWSYPDEKNKNASVRRRIDQSNSHANIFYSVLTIDKMQNKDKGLYTCRVRSGPSFKSVNTSVHIYDGSKVDKKV[gap - human IgG1 Fc with C220S H224Y (EU numbers)]
notes: Based on VEGF-Grab3; IgG1 Fc
B10: in assay [1], the “Fold (KD)” value is 0.83 fold, the “Fold (kdis)” value came out at 0.7 fold and the “Fold (kon)” value worked out at 1.19 fold. Also, in assay [2], the “Fold (KD)” value is 0.94 fold, the “Fold (kdis)” value came to 1.09 fold and the “Fold (kon)” value came out at 0.86 fold.

B11: C52 (Fc fusion)
chain: EFGRPFVEMYSEIPEIIHMTEGRELVIPCRVTSPNITVTLKKFPLDTLIPDGKRIIWDSRKGFIISNATYKEIGLLTCEATVNGHLYKTNYLTHRQTNTIIDVQISTPSPVTLLRGHTLVLNCTATTPLNTRVQMTWSYPDEKNKNASVRRRIDQSNSHANIFYSVLTIDKMQNKDKGLYTCRVRSGPSFKSVNTSVHIYDGGGGSAEPKAGDKAPPG[gap - human IgG1 Fc with C229G (EU numbers)]
notes: Based on VEGF-Grab3; IgG1 Fc
As for B11, in assay [1], the “Fold (KD)” value is 0.24 fold, the “Fold (kdis)” value worked out at 0.2 fold and the “Fold (kon)” value stood at 1.19 fold. In assay [2], the “Fold (KD)” value is 1.67 fold, the “Fold (kdis)” value was 1.17 fold and the “Fold (kon)” value came to 1.42 fold.

B12: C55 (Fc fusion)
chain: EFGRPFVEMYSEIPEIIHMTEGRELVIPCRVTSPNITVTLKKFPLDTLIPDGKRIIWDSRKGFIISNATYKEIGLLTCEATVNGHLYKTNYLTHRQTNTIIDVQISTPSPVTLLRGHTLVLNCTATTPLNTRVQMTWSYPDEKNKNASVRRRIDQSNSHANIFYSVLTIDKMQNKDKGLYTCRVRSGPSFKSVNTSVHIYDGGGGSA[gap - human IgG1 Fc with C220S H224Y (EU numbers)]
notes: Based on VEGF-Grab3; IgG1 Fc
Take B12: in assay [1], the “Fold (KD)” value came to 0.3 fold, the “Fold (kdis)” value was found to be 0.29 fold and the “Fold (kon)” value is 1.06 fold. Also, in assay [2], the “Fold (KD)” value came out at 1.47 fold, the “Fold (kdis)” value came to 1.36 fold and the “Fold (kon)” value amounted to 1.09 fold.

B13: C45 (Fc fusion)
chain: EFGRPFVEMYSEIPEIIHMTEGRELVIPCRVTSPNITVTLKKFPLDTLIPDGKRIIWDSRKGFIISNATYKEIGLLTCEATVNGHLYKTNYLTHRQTNTIIDVQISTPSPVTLLRGHTLVLNCTATTPLNTRVQMTWSYPDEKNKNASVRRRIDQSNSHANIFYSVLTIDKMQNKDKGLYTCRVRSGPSFKSVNTSVHIYDEGSSGGSSGEPKS[gap - human IgG1 Fc and a few adjoining residues]
notes: Based on VEGF-Grab3; IgG1 Fc
With B13, in assay [1], the “Fold (KD)” value was found to be 0.56 fold, the “Fold (kdis)” value is 0.52 fold and the “Fold (kon)” value amounted to 1.08 fold. For the same molecule, in assay [2], the “Fold (KD)” value is 1.81 fold, the “Fold (kdis)” value was found to be 1.23 fold and the “Fold (kon)” value came to 1.47 fold.

For the origin of these results see US20260034244A1 (PANOLOS BIOSCIENCE, published 2026).
